Measured values reported in PubChem BioAssay (NCI).
Several values for one entry are separate records, joined by “and”; a condition that tells them apart may be missing. Equal entries are not always repeated.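 Cultured in 96-well plates, cells were exposed to test compound for 48 hours across five concentrations. Abbreviation: GI50, concentration required for 50% inhibition of growth. TGI denotes the concentration required for complete inhibition of growth.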 Numbered stars: 1 amine (or outer) side, 2 acyl side, 3 side chain; on linkers, the order of the positions; unused ones are H or OH. Square brackets hold non-standard residues; d marks the D form. Peptide text beside a SMILES is read from it. ξ: configuration not given here. X3 = CC[C@H](C)[C@H](OC(=O)[C@@H](C)[C@@H](CC)N[*:1])C(=O)[*:2]; X4 = C[C@H](N[*:1])C(=O)C(C)(C)C(=O)[*:2]; X14 = CC[C@@H](C)C(N[*:1])C(=O)[*:2]; NMeY = CN[C@@H](Cc1ccc(O)cc1)C(=O)O; NMeL = CN[C@@H](CC(C)C)C(=O)O; NMeV = CN[C@H](C(=O)O)C(C)C; ξR = N=C(N)NCCCC(N)C(=O)O; ξI = CCC(C)C(N)C(=O)O; ξL = CC(C)CC(N)C(=O)O; ξK = NCCCCC(N)C(=O)O; ξV = CC(C)C(N)C(=O)O; ξA = CC(N)C(=O)O

Test system: NCI-H322M lung
Experiment: NCI-60 cell line screen, 48 h

Row | SMILES | GI50 [µM] | TGI
1 | Cc1cc2cn3c4cccnc4[nH]c(=O)c3c2cc1C | 1.85 | 3.47 µM
2 | COc1ccc(-c2cc(-c3cc(F)c(Cl)cc3Cl)on2)cc1OC |  | > 100 µM
3 | O=C1c2ccccc2-c2nc(/C=C/c3ccccc3)cc3c2c1nc1ccccc13 |  | > 100 µM
4 | CC1(C)CC2(C)CC1CC2NC(=O)CCN1CCOCC1 (centres undefined) |  | > 100 µM
5 | c1ccc2c(c1)CC1COc3ccccc3C1O2 (centres undefined) |  | > 100 µM
6 | C[C@]1(O)O[C@@H]2OCC[C@@H]2C2=C1C(=O)c1ccccc1C2=O |  | 33 µM
7 | Cn1c(=O)c(Oc2ccccc2)cc2cnc(NC3CCOCC3)nc21 | > 25 | > 25 µM
8 | c1ccc2nc(CCC3CCCCN3)ccc2c1 (centres undefined) |  | > 100 µM
9 | Nc1ccc(Oc2ccc(C34CC5CC6C3CC3CC4C(C5)C6(c4ccc(Oc5ccc(N)c(O)c5)cc4)C3)cc2)cc1O |  | > 33.2 µM
10 | NC1=Nc2cc(OCCCN3Cc4ccccc4C3)c(OCC3CC3)cc2C12CCCC2 | 3.72 | 15.7 µM
11 | CC(C)Nc1ncc2cc(Oc3ccc(F)cc3F)c(=O)n(C)c2n1 | > 25 | > 25 µM
12 | C1COCCOCCOCCOCCO1.CC(=O)[CH-]C(C)=O.CC(=O)[CH-]C(C)=O.CC(=O)[CH-]C(C)=O.[V] | 15.9 | 56.8 µM
13 | CC[C@H](C)[C@@H]1OC(=O)[C@@H](C)[C@@H](CC)NC(=O)[C@H](C)NC(=O)C(C)(C)C(=O)[C@H](C)NC(=O)[C@H](Cc2ccc(OC)cc2)N(C)C(=O)[C@H](C(C)C)N(C)C(=O)CNC(=O)[C@H](CC(C)C)N(C)C(=O)CNC1=O (cyclo(A[X3]G[NMeL]G[NMeV][NMeY](Me)[X4])) | 0.141 | 6.88 µM and 21.6 µM
14 | Cc1ccc(Sc2sc(-c3ccccc3)nc2[P+](c2ccccc2)(c2ccccc2)c2ccccc2)cc1 | 0.342 | 1.25 µM
15 | O=C(Nc1ccccc1)Nc1cccc(Oc2nnc(Cl)c3ccccc23)c1 | 2.19 | > 25 µM
16 | CCNCCCn1c2c(c3ccc([N+](=O)[O-])cc3c1=O)C(=O)c1cc(OC)cnc1-2 | 0.0644 | 0.926 µM
17 | O=C(/C=C/c1ccccc1Cl)c1ccc(Cl)cc1Cl |  | 34 µM
18 | CCOC(=O)C(O)(NC(=O)NC(O)(C(=O)OCC)C(F)(F)F)C(F)(F)F (centres undefined) |  | > 100 µM
19 | Clc1ncc(Cl)c(Cl)n1 |  | 27.3 µM
20 | O=C(NCc1ccncc1)C1COc2cc(-c3cc(=O)c4ccccc4o3)ccc2O1 (centres undefined) |  | > 100 µM
21 | C=C(C(=O)OC)c1cc2ccccc2n1S(=O)(=O)c1ccccc1 |  | 26.7 µM
22 | CC(C)OC(=O)[C@@H](O)[C@H](CO)C1=CC([Si](C)(C)c2ccccc2)=CON1 |  | > 100 µM
23 | COc1ccc(-c2csc(NC(=O)c3cc(O)c(O)c(O)c3)n2)cc1 | 12 | > 33.3 µM

Row | SMILES | GI50 [µM] | TGI
24 | Cc1ccc(S(=O)(=O)NC(=O)NC(Cc2ccc(O)c(O)c2)C(=O)O)cc1 (centres undefined) |  | > 100 µM
25 | CC1C(=O)O[C@H]2C1CC[C@@]1(C)[C@H](O)CC[C@@]13C[C@]2(O)OO3 (some centres undefined) |  | > 100 µM
26 | COc1ccc(Oc2nc(C#CC(C)(C)O)nc(Oc3ccc(OC)cc3)n2)cc1 |  | 30.5 µM
27 | CC1(CC2=C(C(=O)NCCO[Si](C)(C)C(C)(C)C)C3(OCCO3)C2=O)OCCO1 |  | > 100 µM
28 | CC[C@@]12C=CC(=S)N(CCSc3ccccc3)[C@@H]1c1c(n(S(=O)(=O)c3ccc(OC)cc3)c3ccccc13)CC2 |  | > 100 µM
29 | COc1ccccc1/C=C/C(=O)/C=C/c1ccccc1OC | 3.54 | 11.7 µM
30 | NNC(=O)/C(NC(=O)c1ccccc1)=C(\N)c1ccc(Cl)cc1 |  | > 100 µM
31 | COc1ccc(/C=N/NC(=O)c2cnc3[nH]c(=O)n(C)c(=O)c3c2)cc1 |  | > 100 µM
32 | OCC(O)C(O)C(O)/C=N/Nc1nc2ccccc2nc1-c1ccccc1 (centres undefined) | 69 | > 100 µM
33 | COC(=O)[C@H](Cc1ccccc1)NP(=O)(O)OCC1C=CC(n2cc(C)c(=O)[nH]c2=O)O1 (some centres undefined) |  | > 100 µM
34 | COc1ccc2c(c1)/C(=N/OC(C)=O)c1c-2c(=O)[nH]c2ccccc12 | 12.1 | 31.9 µM
35 | O=C1NN(c2ccccc2)C(=O)/C1=C/c1ccc(Br)o1 | 12.8 | 25.6 µM
36 | CC(=O)OC1Oc2ccccc2-c2oc(=O)c(-c3cc4ccccc4oc3=O)cc21 (centres undefined) | 28 | > 100 µM
37 | CC1CCc2sc3[nH]c(=S)n(-c4ccccc4)c(=O)c3c2C1 (centres undefined) |  | > 100 µM
38 | O=[N+]([O-])c1ccc2c(c1)c(S(=O)(=O)O)cc1nonc12 |  | > 100 µM
39 | CCOC(=O)C(C(=O)OCC)=C1NC2(c3ccccc3Nc3ccc(C)cc32)C(C(=O)OC)S1 (centres undefined) |  | > 100 µM
40 | CCC(C)C1NC(=O)C(CC(C)C)NC(=O)C(C)NC(=O)C(C(C)C)NC(=O)C(CCCCN)NC(=O)C(CC(C)C)NC(=O)C(C(C)C)NC(=O)[C@H](C)NC(=O)C(C(C)CC)NC(=O)C(CCCN=C(N)N)NC(=O)C(CCCCN)NC(=O)C(CCCN=C(N)N)NC(=O)C(CCCCN)NC(=O)C([C@H](C)CC)NC(=O)C(CCCCN)NC1=O (some centres undefined) (cyclo(A[ξV][ξL][ξK][ξV][ξA][ξL][ξI][ξK][X14][ξK][ξR][ξK][ξR][ξI])) | 2.86 | 11 µM
41 | Cc1c2c(cc3c(=O)ccn(CCN(C)C)c13)c(=O)ccn2CCN(C)C |  | 34.2 µM
42 | Cc1ccc(C(=O)Nc2ccc(S(=O)(=O)O)c3cc(S(=O)(=O)O)cc(S(=O)(=O)O)c23)cc1NC(=O)c1cccc(NC(=O)Nc2cccc(C(=O)Nc3cc(C(=O)Nc4ccc(S(=O)(=O)O)c5cc(S(=O)(=O)O)cc(S(=O)(=O)O)c45)ccc3C)c2)c1 (tested in a mixture with another compound) |  | > 50 µM
43 | CC1(C)CCC(=O)NC1CC(=O)CC1NC(=O)CCC1(C)C (centres undefined) |  | > 100 µM
44 | CC(C)c1ccc(NC(=S)NC(=O)c2ccccc2)cc1 |  | > 100 µM
45 | C=CCCCCCCCCCOC1C=CC(OC(C)=O)C(COC(C)=O)O1 (centres undefined) |  | > 100 µM
46 | CCOC(=O)c1cc(C(=O)c2cc(OC)c(OC)c(OC)c2)n2ccccc12 | 0.713 | > 100 µM

Row | SMILES | GI50 [µM] | TGI
47 | CCSc1nnc(-c2ccc3ccccc3c2O)n1-c1ccc(Cl)cc1 | 7.46 | > 100 µM
48 | Cc1cc(=O)oc2cc(OS(C)(=O)=O)ccc12 |  | > 100 µM
49 | NC1CC(=O)c2sccc21 (centres undefined) |  | > 100 µM
50 | O=C(COc1cccc(/C=C2\CSc3ccccc3C2=O)c1)c1ccc(Cl)cc1 | 14 | 47.5 µM
51 | CS(=O)(=O)OCCCOS(C)(=O)=O |  | > 100 µM
52 | C=C1C[C@@]2(C)C(CC[C@]3(C)C2CC=C2C4CC(C)(C)C[C@@H](OC(=O)/C(C)=C\C)[C@]4(C(=O)O)CC[C@]23C)C(C)(C)C1=O (some centres undefined) | 4.54 | 16.7 µM
53 | CCOC(=O)Nc1nc2c(C)cccc2s1 | 77.3 | > 100 µM
54 | COc1ccc(-c2cc(=O)c3c(OC)c(OC)c(OC)c(OC)c3o2)c(OC)c1 |  | > 100 µM
55 | N#CC1C2CCC3(CC2CCN1C(=O)c1ccccc1)OCCO3 (centres undefined) |  | > 100 µM
56 | COc1cc(C2c3cc4c(cc3[C@@H](Nc3cccc([N+](=O)[O-])c3)C3COC(=O)[C@H]23)OCO4)cc(OC)c1O (some centres undefined) |  | > 100 µM
57 | CC(C)(C)c1ccc(C(C)(C)C)c(N2C(=O)C3ON=C(c4ccc([N+](=O)[O-])cc4)C3C2=O)c1 (centres undefined) |  | > 25 µM
58 | CCOC(=O)/C(=C\c1ccc[nH]1)C(=O)c1ccccc1 |  | > 100 µM
59 | CCOC(=O)Cn1c(=O)c2cc(-c3ccccc3)cc3c(Cl)nc4c(OC)c(OC)cc1c4c32 |  | > 42.9 µM
60 | C=C1C(=O)O[C@@H]2[C@H](O)[C@@H](C)[C@@H]3C=CC(=O)[C@@]3(C)[C@H](OC(=O)C=C(C)C)[C@H]12 |  | 8.41 µM
61 | Cn1cnc([N+](=O)[O-])c1Sc1nnnn1-c1ccccc1 |  | > 100 µM
62 | CCc1nc2ccc(C(F)(F)F)cc2[nH]c1=O |  | > 100 µM
63 | COc1ccc(OC)c2c(=S)c3ccccc3[nH]c12 |  | > 100 µM
64 | N#C/C(=C\c1ccc(C(O)P(=O)(O)O)cc1)C(N)=O (centres undefined) |  | > 100 µM
65 | N#Cc1ccc2c(c1)C(=O)c1c-2n(CCCN)c(=O)c2cc([N+](=O)[O-])ccc12 | 0.999 | 2.75 µM
66 | COc1cc2c(cc1OCCCC(=O)Nc1cc(C(=O)NCCCN(C)C)n(C)n1)N=CC1CCCN1C2=O (centres undefined) |  | > 57.3 µM
67 | C=CC1=C(C)C2=NC1=CC1=NC(=CC3=C(C)C4=C(O)C(C(=O)OC)C(=C5NC(=C2)C(C)C5CCC(=O)OC)C4=N3)C(CC)=C1C (centres undefined) |  | > 100 µM
68 | NC(=O)c1ccc2nc3c(n2c1)C(=O)C(=O)c1ccccc1-3 | 1.74 | 3.13 µM
69 | CCCN(CCSSCCNc1nc(N(C)O)nc(N(C)O)n1)c1nc(N(C)O)nc(N(C)O)n1 | 4.4 | > 100 µM

Row | SMILES | GI50 [µM] | TGI
70 | CCOc1ccc2nc(NC(NC(=O)c3cccnc3)(C(F)(F)F)C(F)(F)F)sc2c1 |  | > 100 µM
71 | c1ccc(N=C2SC3=NCCN3C2=Nc2ccccc2)cc1 |  | 30.3 µM
72 | COc1cc(Nc2nc3ccc(C(F)(F)F)cc3nc2-c2ccccc2)cc(OC)c1OC |  | > 100 µM
73 | COC(=O)c1cc(C(=CCC[C@H]2CC[C@@]3(C)C(CCC4C3CC[C@@]3(C)C4CC[C@@H]3C(C)CCCC(C)C)C2)c2cc(Cl)c(OC(=O)c3ccccc3)c(C(=O)OC)c2)cc(Cl)c1OC(=O)c1ccccc1 (some centres undefined) |  | > 10 µM
74 | C=C1C(=O)O[C@H]2[C@H]1CC/C(COC(=O)c1ccccc1)=C\CC[C@@]1(C)O[C@@H]21 | 3.31 | 12.5 µM
75 | N#CC1CC2(C(=O)C1=O)c1ccccc1-c1ccccc12 (centres undefined) |  | > 100 µM
76 | Cc1c(N=Cc2ccc(N(CCC#N)CCC#N)cc2)c(=O)n(-c2ccccc2)n1C |  | > 100 µM
77 | COc1ccc(/C=C/NC=O)cc1 |  | > 100 µM
78 | CC1(O)CCC2(C#N)CCC1C2O (centres undefined) |  | > 100 µM
79 | CSc1nc2c(=O)n(-c3ccccc3)c(=S)n(-c3ccccc3)c2s1 |  | > 100 µM
80 | COc1ccc(N(C)c2c3ccccc3nc3[nH]c4ccccc4c23)cc1 | 0.391 | 1.23 µM
81 | CC(=O)/C=C(\O)c1[nH]c(C(=O)O)cc1C1CCN(Cc2ccccc2)C1=O (centres undefined) |  | 66.4 µM
82 | COc1ccc(N(/C=C/C(=O)C(F)(F)F)CC(=O)c2ccc(Cl)c(Cl)c2)cc1 | 13 | 27.5 µM
83 | COc1ccc2cc(C(=O)NCCCNC(=O)c3ccc4cc(OC)ccc4c3)ccc2c1 |  | > 100 µM
84 | COc1cc2c(cc1OC)-c1cc3cc(OC)c(OC)cc3c(=O)n1CC2 |  | > 84.4 µM
85 | O=C1CS/C(=N\S(=O)(=O)c2ccc(N3N=C4c5ccccc5CC4C3c3ccc(Cl)cc3)cc2)N1c1ccccc1 (centres undefined) | 19.3 | > 100 µM
86 | O=C(CC1C=CCS1(=O)=O)NCc1ccccc1 (centres undefined) |  | > 100 µM
87 | N#C/C(=C\c1ccc(Br)cc1)n1nnc2ccccc21 | 2 | 7.31 µM
88 | NS(=O)(=O)c1ccc(NC(=O)c2cccc3cc4ccccc4nc23)cc1 |  | > 100 µM
89 | C[C@H](N)C(=O)N1C[C@H](CCCB(O)O)[C@](N)(C(=O)O)C1 | > 100 | > 100 µM
